Data: EPA's CvTdb concentration-time database
The source gives many values for each of these; only a part stands here.

What was measured:
Rat [1] = assay: concentration in plasma after dosing; conditions: 20 min; dosed: 2-Methyltetrahydrofuran; 100 mg/kg; oral; Female; Harlan Sprague Dawley
Rat [2] = assay: concentration in brain after dosing; conditions: 0.75 h; dosed: 2-Methyltetrahydrofuran; 10 mg/kg; oral; Male; F344
Rat [3] = assay: concentration in plasma after dosing; conditions: 0.25 h; dosed: 2-Methyltetrahydrofuran; 10 mg/kg; iv; Female; F344
Rat [4] = assay: concentration in plasma after dosing; conditions: 4 h; dosed: 2-Methyltetrahydrofuran; 100 mg/kg; oral; Female; Harlan Sprague Dawley
Rat [5] = assay: concentration in brain after dosing; conditions: 2 h; dosed: 2-Methyltetrahydrofuran; 10 mg/kg; oral; Male; F344
Rat [6] = assay: concentration in brain after dosing; conditions: dosed: 2-Methyltetrahydrofuran
Rat [7] = assay: concentration in plasma after dosing; conditions: 0.5 h; dosed: 2-Methyltetrahydrofuran; 10 mg/kg; iv; Male; F344
Rat [8] = assay: concentration in plasma after dosing; conditions: 0.5 h; dosed: 2-Methyltetrahydrofuran; 10 mg/kg; iv; Female; F344
Rat [9] = assay: concentration in plasma after dosing; conditions: 20 min; dosed: Bromochloroacetic acid; 10 mg/kg; iv; Male; F344
Rat [10] = assay: concentration in plasma after dosing; conditions: dosed: Fluorotelomer alcohol 8+2, 40 mg/kg, oral, Female, Harlan Sprague Dawley
Rat [11] = assay: concentration in plasma after dosing; conditions: 0.5 h; dosed: Fluorotelomer alcohol 8+2; 80 mg/kg; oral; Female; Harlan Sprague Dawley
Rat [12] = assay: concentration in plasma after dosing; conditions: dosed: Formamide, 300 mg/kg, oral, Female, Harlan Sprague Dawley
Rat [13] = assay: concentration in plasma after dosing; conditions: 2 h; dosed: Formamide; 30 mg/kg; iv; Female; F344
Rat [14] = assay: concentration in plasma after dosing; conditions: dosed: Formamide, 300 mg/kg, oral, Female, Harlan Sprague Dawley; remark: listed apart in the source
Rat [15] = assay: concentration in plasma after dosing; conditions: dosed: Pyridine, 5 mg/kg, iv, Female, Harlan Sprague-Dawley

CC1CCCO1 (stereo not drawn) [2-Methyltetrahydrofuran]
Conditions | concentration in brain [µg/g] | concentration in plasma [ng/mL]
Rat [1] | – | 47900
Rat [2] | 0.809 | –
Rat [3] | – | 8130
Rat [4] | – | 21200
Rat [5] | 0.0804 | –
Rat [7] | – | 4860
Rat [8] | – | 4760

concentration in brain [µg/g], Rat [6]
Conditions | Female | Male
0.25 h, 10 mg/kg, iv, F344 | 2.99 | 6.43
0.25 h, 10 mg/kg, oral, F344 | 3.1 | 4.05
0.25 h, 30 mg/kg, oral, F344 | 10.1 | 17.1
0.5 h, 10 mg/kg, iv, F344 | 2.15 | 2.43
0.5 h, 10 mg/kg, oral, F344 | 2.13 | 2.65
0.5 h, 30 mg/kg, oral, F344 | 8.95 | 13.4
0.75 h, 10 mg/kg, oral, F344 | 1.45 | 1.2
0.75 h, 30 mg/kg, oral, F344 | 7.48 | 11.7
0.75 h, 100 mg/kg, oral, F344 | 65.8 | –
0.75 h, 100 mg/kg, oral, Harlan Sprague Dawley | 45.7 | 36.5
0.75 h, 400 mg/kg, oral, F344 | 162 | 216
0.75 h, 400 mg/kg, oral, Harlan Sprague Dawley | 125 | –
1 h, 10 mg/kg, iv, F344 | 0.731 | 1.48
1 h, 10 mg/kg, oral, F344 | 0.535 | 0.577
1 h, 30 mg/kg, oral, F344 | 7.62 | 7.05
1.5 h, 10 mg/kg, iv, F344 | 0.18 | 0.699
1.5 h, 10 mg/kg, oral, F344 | 0.237 | 0.282
1.5 h, 30 mg/kg, oral, F344 | 4.54 | 5.58
1.5 h, 100 mg/kg, oral, Harlan Sprague Dawley | 40.1 | 23.4
1.5 h, 400 mg/kg, oral, F344 | 99.2 | 187
1.5 h, 400 mg/kg, oral, Harlan Sprague Dawley | 146 | –
2 h, 10 mg/kg, iv, F344 | 0.0894 | 0.365
2 h, 10 mg/kg, oral, F344 | 0.0382 | 0.0659
2 h, 30 mg/kg, oral, F344 | 1.94 | 3.01
2 min, 10 mg/kg, iv, F344 | 7.7 | 10.5
2 min, 10 mg/kg, oral, F344 | 1.63 | 0.468
2 min, 30 mg/kg, oral, F344 | 7.36 | 1.74
2.5 h, 10 mg/kg, oral, F344 | 0.0268 | 0.039
3 h, 10 mg/kg, iv, F344 | 0.0263 | 0.0737
3 h, 30 mg/kg, oral, F344 | 0.0938 | 0.348
4 h, 100 mg/kg, oral, Harlan Sprague Dawley | 22.3 | 6.08
4 h, 400 mg/kg, oral, F344 | 83.8 | 94.8
4 h, 400 mg/kg, oral, Harlan Sprague Dawley | 84.7 | –
4 min, 10 mg/kg, oral, F344 | 3.04 | 1.76
4 min, 30 mg/kg, oral, F344 | 5.64 | 5.36
5 min, 10 mg/kg, iv, F344 | 7.33 | 4.41
5 min, 100 mg/kg, oral, F344 | 67.7 | 56.2
5 min, 100 mg/kg, oral, Harlan Sprague Dawley | 28.3 | 57
5 min, 400 mg/kg, oral, F344 | 181 | 222
5 min, 400 mg/kg, oral, Harlan Sprague Dawley | 224 | –
6 h, 100 mg/kg, oral, Harlan Sprague Dawley | 12.3 | 0.745
6 h, 400 mg/kg, oral, F344 | 56.2 | 71.4
6 h, 400 mg/kg, oral, Harlan Sprague Dawley | 53.5 | –
8 h, 100 mg/kg, oral, F344 | – | 0.016
8 h, 100 mg/kg, oral, Harlan Sprague Dawley | 0.239 | 0.0313
8 h, 400 mg/kg, oral, F344 | – | 34.5
8 h, 400 mg/kg, oral, Harlan Sprague Dawley | 44.2 | –
8 min, 10 mg/kg, oral, F344 | 2.99 | 3.84
8 min, 30 mg/kg, oral, F344 | 8.37 | 11.8
10 min, 10 mg/kg, iv, F344 | 5.89 | 5.7
10 min, 10 mg/kg, oral, F344 | 3.87 | 2.77
10 min, 30 mg/kg, oral, F344 | 8.63 | 12.8
10 min, 100 mg/kg, oral, Harlan Sprague Dawley | 24.9 | 29.9
10 min, 400 mg/kg, oral, F344 | 120 | 236
10 min, 400 mg/kg, oral, Harlan Sprague Dawley | 193 | –
12 h, 100 mg/kg, oral, Harlan Sprague Dawley | 0.00556 | –
12 h, 400 mg/kg, oral, F344 | 9.12 | 0.821
12 h, 400 mg/kg, oral, Harlan Sprague Dawley | 9.07 | –
20 min, 10 mg/kg, iv, F344 | 3.28 | 5.5
20 min, 10 mg/kg, oral, F344 | 2.68 | 4.57
20 min, 30 mg/kg, oral, F344 | 15.1 | 16.7
20 min, 100 mg/kg, oral, Harlan Sprague Dawley | 47.9 | 43.9
20 min, 400 mg/kg, oral, F344 | 165 | 140
20 min, 400 mg/kg, oral, Harlan Sprague Dawley | 182 | –

O=C(O)C(Cl)Br (stereo not drawn) [Bromochloroacetic acid]
Conditions | concentration in plasma [ng/mL]
Rat [9] | 1360

OCCC(F)(F)C(F)(F)C(F)(F)C(F)(F)C(F)(F)C(F)(F)C(F)(F)C(F)(F)F [Fluorotelomer alcohol 8+2]
Rat [10]
Conditions | concentration in plasma [ng/mL]
0.25 h | 166
6 h | 103

Conditions | concentration in plasma [ng/mL]
Rat [11] | 544

NC=O [Formamide]
concentration in plasma [ng/mL]
Conditions | 0.5 h | 8 h | 12 h | 48 h
Rat [12] | 198000 | – | – | 76300
Rat [14] | – | 387000 | 316000 | –

Conditions | concentration in plasma [ng/mL]
Rat [13] | 42300

c1ccncc1 [Pyridine]
Rat [15]
Conditions | concentration in plasma [ng/mL]
5 min | 6260
8 h | 390
